Measurements published in PubChem BioAssay AID894 (National Center for Advancing Translational Sciences (NCATS), 2007).
In all, about 150,000 compounds went through this assay and about 6,500 (4.3%) were called active. The shares of active, inactive and inconclusive entries below differ from those in the screen. The call rests on the fitted dose curve; in most records, active means well fitted inhibition curve with a large enough effect (not every such curve was filed as active); inconclusive means small, poorly fitted or top-dose-only effect, or another doubt; inactive means no such curve, though single readings can be large or run the other way. Where the call is inconclusive, the potency comes from a doubtful curve fit.

Target: 15-hydroxyprostaglandin dehydrogenase [NAD(+)] (Homo sapiens) (UniProt P15428)
Assay: qHTS Assay for Inhibitors of HPGD (15-Hydroxyprostaglandin Dehydrogenase)
Details: purified HPGD, NADH fluorescence kinetic, PGE2 substrate; activity change, negative = inhibition: hits give low values
How it was run: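 NADH formation kinetics: reaction with 30 uM PGE2 and 1 mM NAD+ (final), 20 nM enzyme, Tris-HCl pH 8 with Tween 20, after 15 min compound preincubation at room temperature. Fluorescence change, last versus first of five reads.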
On the % scale 0 is the no-effect control and ±100 the full control effect; potency means the concentration at half of the fitted maximal effect; tags describe the fitted curve by direction and shape.

UniProt P15428, sequence (P15428 whole entry, looked up): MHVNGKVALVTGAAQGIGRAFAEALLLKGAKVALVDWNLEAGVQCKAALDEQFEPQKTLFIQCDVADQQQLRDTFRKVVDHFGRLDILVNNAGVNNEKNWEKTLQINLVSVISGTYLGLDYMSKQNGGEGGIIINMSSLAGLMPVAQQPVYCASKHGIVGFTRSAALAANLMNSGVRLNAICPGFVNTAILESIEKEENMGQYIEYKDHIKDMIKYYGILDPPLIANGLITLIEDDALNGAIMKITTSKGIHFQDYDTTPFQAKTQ

Potency, active:
CCCC(C(=O)O)N1C(=O)/C(=C/c2cccn2C)SC1=S (stereo not given) 17.8 µM
O=c1cc(CSc2nnc(-c3ccco3)o2)c2ccccc2[nH]1 20 µM
O=C(Cc1cccs1)N1CCC(c2nc3c(nnn3Cc3ccccc3)c(=O)[nH]2)CC1 4.47 µM
Clc1ccccc1-c1nnn(Cc2ccc(-c3nn[nH]n3)cc2)n1 12.6 µM
CCc1ccc(C2C(C#N)=C(N)SC(N)=C2C#N)cc1 35.5 µM
O=C(NCC1CCCO1)c1cnn2c1NC(c1ccccc1)CC2C(F)(F)F (stereo not given) 25.1 µM
CC(C)C1NC2(C(=O)c3ccccc3C2=O)C2C(=O)N(c3ccc(F)cc3)C(=O)C12 (stereo not given) 31.6 µM
O=C(N/N=C/c1cccs1)c1cc(-c2cccc3ccccc23)n[nH]1 25.1 µM

Potency, inconclusive:
Cn1nnc2cc(C(=O)NC3CC3)ccc21 31.6 µM [inhibitor, partial curve]
COc1ccccc1CNC(=O)c1ccccc1N 31.6 µM [inhibitor, partial curve]
CCCn1nc(NC(=O)c2cccs2)c2cc3cc(OC)ccc3nc21 22.4 µM [inhibitor, partial curve]
N#CC1=C(N)Oc2ccc3ccc(O)cc3c2C1c1ccsc1 (stereo not given) 28.2 µM [inhibitor, single point]
O=C(CN(c1ccc(Cl)cc1)S(=O)(=O)c1ccccc1)N/N=C/c1ccco1 15.8 µM [inhibitor, partial curve]
COc1cc2c(cc1OC)C(c1cc3cc(OC)c(OC)cc3[nH]c1=O)N(C(=O)C1CC1)CC2 (stereo not given) 28.2 µM [inhibitor, partial curve]
O=C1c2ccccc2CC1Sc1nnc(-c2ccncc2)o1 (stereo not given) 25.1 µM [inhibitor, single point]
Cc1ccc2cc(C(c3nnnn3C(C)(C)C)N3CCCCCC3)c(=O)[nH]c2c1 (stereo not given) 28.2 µM [inhibitor, partial curve]
O=C(Nc1nc(-c2nc3ccccc3s2)cs1)C1COc2ccccc2O1 (stereo not given) 28.2 µM [inhibitor, single point]
Cc1cc(C)cc(C(=O)Nc2nnc(SCC(=O)N3CCCc4ccccc43)s2)c1 31.6 µM [inhibitor, partial curve]
N#CCSc1n[nH]c2nc3c(c(=O)n12)C1(CCCC1)Cc1ccccc1-3 31.6 µM [inhibitor, partial curve]
COC(=O)c1ccc(NC(=O)CSc2nc3ccccc3c(=O)[nH]2)cc1 2 µM [inhibitor, full curve, poor fit]
COc1cc(C=O)c(Br)cc1OCc1ccc(C)cc1 17.8 µM [inhibitor, partial curve]
Cc1cccn2c1nc(=S)n2C(=O)c1ccco1 35.5 µM [inhibitor, partial curve]
O=C(NN=C1c2ccccc2-c2ccccc21)c1ccccn1 31.6 µM [inhibitor, partial curve]
COc1cccc(/C=N/NC(=O)CN2CC(c3ccccc3)CC2=O)c1OC (stereo not given) 25.1 µM [inhibitor, partial curve]
NC[C@H](O)c1ccc(O)c(O)c1 15.8 µM [inhibitor, partial curve]
CC(C)n1nc(C(=O)Oc2ccc(Cl)cc2)c2ccccc2c1=O 39.8 µM [inhibitor, partial curve]
O=C(COc1ccc(/C=N/NC(=O)CSCc2ccc([N+](=O)[O-])cc2)cc1)NCc1ccco1 20 µM [inhibitor, partial curve]
COc1ccc(/C=C2\SC(=N)N(c3nccs3)C2=O)cc1OC 15.8 µM [inhibitor, partial curve]
COc1cc2[nH]c(=O)n(Cc3ccc(C(=O)NCC4CCCO4)cc3)c(=O)c2cc1OC (stereo not given) 25.1 µM [inhibitor, partial curve]
O=c1nc2c(-c3ccccc3F)n[nH]n2c2ccccc12 14.1 µM [inhibitor, partial curve]
CCOC(=O)c1nn(-c2ccc3c(c2)OCO3)cc1O 39.8 µM [inhibitor, partial curve]
CCOC(=O)c1snc2c(=O)[nH]cnc12 31.6 µM [inhibitor, partial curve]
CCn1cc(C2C(C(=O)Nc3ccc(Br)cn3)=C(C)NC3=C2C(=O)CCC3)c(C)n1 (stereo not given) 28.2 µM [inhibitor, partial curve]
CC1(C)Cc2c(c(N3CCOCC3)nc3sc(C(=O)N4CCCCC4)c(N)c23)CO1 6.31 µM [inhibitor, partial curve, poor fit]

Activity change, negative = inhibition, inactive:
CC(=O)Nc1nc(C)c(C(C)=O)s1 -20.5%
CN(C)S(=O)(=O)Oc1cccc(C(=O)Nc2ccc(Cl)cc2)c1 -17.2%
Cc1[nH][nH]c(=O)c1C(c1c(C)[nH][nH]c1=O)c1cn(Cc2ccccc2Cl)c2ccccc12 -9.52%
CC1=C(C(=O)Nc2ccc(Cl)cc2)C2(CCCCC2)C(C(N)=O)C(=S)N1 (stereo not given) -2.52%
COc1cc(C(=O)NC(=S)Nc2ccc3oc(=O)ccc3c2)cc(OC)c1OC -6.62%
O=C(N/N=C/C1C(c2ccccc2)C1(Cl)Cl)c1cccc(Cl)c1 (stereo not given) -20.5%
Cc1cc(C)c(OCC(=O)Nc2ccc(NC(=O)c3ccco3)cc2)c([N+](=O)[O-])c1 -10.2%
O=C(COC(=O)C1(c2ccc(F)cc2)CCCC1)N1CCc2ccccc21 0.218%
Cc1cc(C)nc(NS(=O)(=O)c2ccc(NC(=S)NC(=O)C3CCCC3)cc2)n1 -6.8%
CC1CCCN(S(=O)(=O)Cc2ccc(Cl)cc2)C1 (stereo not given) -9%
CC1=Nc2ccccc2/C1=C\c1nc(-c2ccccc2)oc1O -5.89%
